Read-outs that look alike come from different tables or passages of the source.
T1: recombinant Ex-FABP (Gallus gallus, UniProt P21760)
T1 sequence (P21760 23-178): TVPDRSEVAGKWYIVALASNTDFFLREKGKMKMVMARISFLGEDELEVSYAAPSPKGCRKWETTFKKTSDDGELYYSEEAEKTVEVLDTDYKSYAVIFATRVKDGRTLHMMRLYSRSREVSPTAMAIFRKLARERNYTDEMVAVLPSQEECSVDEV

B1: Scn: mammalian Siderocalin, family archetype lipocalin (protein, UniProt P80188 21-198, looked up)
Neutrophil …: QDSTSDLIPAPPLSKVPLQQNFQDNQFQGKWYVVGLAGNAILREDKDPQKMYATIYELKEDKSYNVTSVLFRKKKCDYWIRTFVPGCQPGEFTLGNIKSYPGLTSYLVRVVSTNYNQHAMVFFKKVSQNREYFKITLYGRTKELTSELKENFIRFSKSLGLPENHIVFPVPIDQCIDG

What was measured:
recombinant Ex-FABP = target: T1, recombinant Ex-FABP; test: Fluorescence quenching; assay type: binding, chicken
Scn = details: cited from earlier work
Ex-FABP = Ex-FABP (Gallus gallus, UniProt P21760); test: Qualitative siderophore binding assay; parameters: species or system chicken; details: ten-fold excess ferric siderophore, UV-VIS spectroscopy
[1] = test system: B. subtilis (strain ATCC 6051); test: Bacterial growth inhibition assay, B. subtilis; details: iron-free medium, OD600
[2] = test system: P. aeruginosa (strain PAO1); test: Bacterial growth inhibition assay, P. aeruginosa; details: 10 μM protein, M9 minimal media, iron-limited conditions

| Molecule | fluorescence quenching (FQ) of Ex-FABP, in words (recombinant Ex-FABP) | further results |
| --- | --- | --- |
| O=C1N[C@H]2COC(=O)[C@@H]3COC(=O)[C@H](COC2=O)NC(=O)c2cc([C@@H]4O[C@H](CO)[C@@H](O)[C@H](O)[C@H]4O)cc4c2[O][Fe-3]25([O]c6cccc1c6[O]2)([O]4)[O]c1cc([C@@H]2O[C@H](CO)[C@@H](O)[C@H](O)[C@H]2O)cc(c1[O]5)C(=O)N3 [[Fe^III(DGE)]^3−, ferric diglucosylated Ent] | does not show measurable fluorescence quenching |  |
| CC(=O)N([O-])CCCCCNC(=O)CCC(=O)N([O-])CCCCCNC(=O)CCC(=O)N([O-])CCCCCN.[Fe+3] [[Fe^III(DesferrioxamineB)], ferric desferrioxamine] | does not show measurable fluorescence quenching |  |
| C[C@H]1OC(=O)[C@@H](NC(=O)CNC(=O)c2cccc(O)c2O)[C@@H](C)OC(=O)[C@@H](NC(=O)CNC(=O)c2cccc(O)c2O)[C@@H](C)OC(=O)[C@H]1NC(=O)CNC(=O)c1cccc(O)c1O [apo(BB), bacillibactin] | strongly quenched |  |
| O=C(N[C@H]1COC(=O)[C@@H](NC(=O)c2cccc(O)c2O)COC(=O)[C@@H](NC(=O)c2cccc(O)c2O)COC1=O)c1cccc(O)c1O [apo(Ent), enterobactin] | strongly quenched |  |
| CN1[C@@H]([C@H]2CSC(c3ccccc3O)=N2)SC[C@H]1C(=O)O [pyochelin] |  | binding to Scn, in words (Scn; ref Holmes et al., 2005): fail to bind measurably; retention by Ex-FABP after extensive washing (Ex-FABP): retained |
| enterobactin [[Fe^III(Ent)]^3−] | strongly quenched |  |
| ferric monoglucosylated Ent [[Fe^III(MGE)]^3−] | strongly quenched | equilibrium dissociation constants (KD), in words (recombinant Ex-FABP): nanomolar; binding to Scn, in words (Scn; ref Fischbach et al., 2006a, Fischbach et al., 2006b): strictly precluded from binding |
| ferric petrobactin [[Fe^III(Petrobactin)]^2−] | does not show measurable fluorescence quenching |  |
| ferric pyochelin [[Fe^III(Pyochelin)2]^1−] | Significant FQ was not observed |  |
| ferric rhizoferrin [[Fe^III(Rhizoferrin)]] | does not show measurable fluorescence quenching |  |
| monoglucosylated Ent [apo(MGE)] | strongly quenched |  |
| pyoverdine [[Fe^III(Pyoverdine)]^1−] | Significant FQ was not observed |  |
| B1 |  | effect on B. subtilis growth [1]: inhibit growth; effect on P. aeruginosa growth [2]: do not effect the growth |

From PMC3240821 (Structure (London, England : 1993), 2011)
